Assay results published in PubChem BioAssay AID651820 (National Center for Advancing Translational Sciences (NCATS), 2012).
“And” between values parts separate entries of the source, which are not always exact repeats. Equal values may be shown once. Screen size: about 340,000 compounds; about 12,000 (3.5%) were called active. Inconclusive results, whose numbers are uncertain, are shown with a selection of clear calls. Calls come from the whole dose curve; as a rule, active = well fitted inhibition curve with a large enough effect; inconclusive = small, poorly fitted or top-dose-only effect, or another doubt; inactive = no such curve, though single readings can be large or run the other way. Where the call is inconclusive, the potency comes from a doubtful curve fit.

Test: qHTS Assay for Inhibitors of Hepatitis C Virus (HCV)
Settings: Huh7.5.1 HCVcc-Cre (HCVcc is cell-culture hepatitis C virus) infection, luciferase reporter, 44 h; series mostly up to 41.8 µM
How it was run: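 1,000 cells/well; 4 h culture; + compound; + HCVcc-Cre (~0.5 moi); 44 h; luciferase substrate, RT 15 min; read 15 sec.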
Potency is the fitted concentration of half-maximal effect; tags give direction and shape of the fitted curve.

Structure (SMILES)	Potency
COc1ccccc1CNC(=O)COC(=O)Cc1cccs1	inactive
CCOC(=O)/C=C/C(=O)Nc1ccc(S(=O)(=O)N(C)c2ccccc2)cc1	inconclusive: 31.6 µM [inhibitor, single point]
CCCN1Cc2cccc(C(=O)Nc3ccc4c(c3)OCO4)c2C1=O	inconclusive: 5.01 µM [inhibitor, partial curve]
CCCCCn1c(=O)c(C(=O)Nc2cnccn2)c(O)c2ccccc21	active: 8.91 µM
Cc1ccc(-c2nnc(SCC(=O)N/N=C/c3ccccc3C(=O)O)n2-c2ccc(C)cc2)cc1	inactive
CC(C(=O)NCc1cccs1)N1CCN(S(=O)(=O)c2ccc3c(c2)OCCCO3)CC1 (stereo not drawn)	inconclusive: 31.6 µM [inhibitor, single point]
CCOC(=O)c1c(NC(=O)c2c(N)n(CCCOC)c3nc4ccccc4nc23)sc2c1CCCC2	inconclusive: 31.6 µM [inhibitor, single point]
COC(=O)CN1C(=O)[C@H]2[C@@H](C3CC3)N3C(=O)CN(CCO)C(=O)[C@@]3(Cc3ccccc3)[C@H]2C1=O	inconclusive: 31.6 µM [inhibitor, single point]
Cc1ccc2[nH]c(O)c(N=NC(=O)c3ccc(NS(=O)(=O)c4cccs4)cc3)c2c1	inconclusive: 22.4 µM [inhibitor, single point]
COc1ccccc1N1CCN(C(=O)c2cc(=O)c3c(C)cc(C)cc3o2)CC1	inactive
Cc1sc(NC(=O)C2C3CCC(C3)C2C(=O)O)c(C(N)=O)c1-c1ccc(C(C)(C)C)cc1 (stereo not drawn)	inconclusive: 31.6 µM [inhibitor, single point]
CCc1nn(CC(=O)NCCCN(Cc2ccccc2)C(C)C)c(=O)c2cc3sccc3n12	inconclusive: 25.1 µM [inhibitor, single point]
O=C(NCCCN1CCOCC1)c1cc(C(=O)C2CCCCC2)c[nH]1	inactive
O=C(Cc1ccccc1F)Nc1ccc(SC(F)F)cc1	inconclusive: 12.6 µM [inhibitor, single point]
COc1ccc(C(c2nnnn2Cc2ccccc2)N2CCN(c3nc4ccccc4s3)CC2)cc1OC (stereo not drawn)	inconclusive: 31.6 µM [inhibitor, single point]
C[C@@H]1ON(C)[C@H]2C[C@H]3c4cc(N5CCN(C)CC5)ccc4CCN3C(=O)[C@@H]12	inactive
Cc1nc2ccc(NS(=O)(=O)c3ccc(F)c(C)c3)cc2[nH]1	active: 7.08 µM
O=C(COC(=O)c1ccco1)Nc1ccc(Cl)cn1	inactive
COC1=C(Br)C(=O)c2ncccc2C1=O	inconclusive: 31.6 µM [inhibitor, single point]
CN1CC(c2ccc(C#N)cc2)C2(COc3ccccc3C2=O)C12C(=O)Nc1ccccc12 (stereo not drawn)	inconclusive: 11.2 µM [inhibitor, single point]
COc1cccc(CNC(=O)c2ccc(C(=O)NCc3cccc(OC)c3)cc2)c1	inactive
NC(=S)N/N=C/c1ccccc1OCc1cccc(Cl)c1	active: 11.2 µM
Cc1cc(N=CC2=C(O)CC(C)(C)CC2=O)no1	inconclusive: 5.01 µM [inhibitor, single point]
Cn1c2ccccc2c(=O)c2ccc(C#Cc3ccc(N)cc3)cc21	active: 6.31 µM
CCN(CC)c1ccc2cc(-c3nnc(-c4ccncc4)o3)c(=O)oc2c1	inactive

Structure (SMILES)	Potency
CCN(CC)CCNC(=O)C1CCN(S(=O)(=O)c2c(C)noc2/C=C/c2ccccc2F)CC1	active: 5.62 µM
O=C(O)c1cccc(Cn2cc(Cl)cn2)c1	inactive
CCN(CC)CCOC(=O)c1cc(Cl)c(N)cc1OC	active: 4.47 µM
COc1ccc(COC(=O)C2=C(C)NC(=O)NC2c2ccc(OC)cc2)cc1 (stereo not drawn)	inconclusive: 11.2 µM [inhibitor, partial curve]
CCOc1ccc(NC(=O)OCCN2CCN(CCc3ccccc3)C(C)C2)cc1 (stereo not drawn)	active: 11.2 µM
O=C(Nc1nc(-c2ccco2)c(-c2ccco2)s1)c1ccc(F)cc1F	inconclusive: 6.31 µM [inhibitor, partial curve, poor fit]
COc1cc(/C=C/C(=O)OCc2c(C)noc2C)ccc1OC(F)F	inconclusive: 12.6 µM [inhibitor, partial curve, poor fit]
CCCC(=O)c1ccc(N2CCN(S(=O)(=O)c3ccccc3)CC2)c(F)c1	inconclusive: 3.98 µM [inhibitor, full curve]
C#CCNC(=O)C(C)c1ncc(C(F)(F)F)cc1Cl (stereo not drawn)	inactive
Cc1oc2ccc(OC(=O)N(C)C)cc2c1C(=O)OC(C)C	inconclusive: 10 µM [inhibitor, partial curve]
CCc1[nH]nc2c1C(c1ccc(C)o1)C(C#N)=C(N)O2 (stereo not drawn)	inconclusive: 31.6 µM [inhibitor, single point]
Cc1ccccc1CN(C)CC(=O)Nc1cccc(S(=O)(=O)N(C)c2ccccc2)c1	inconclusive: 31.6 µM [inhibitor, single point]
CCOC(=O)c1c(-c2ccccc2)csc1/N=C/C1C(=O)CCCC1=O	inconclusive: 14.1 µM [inhibitor, single point]
Oc1cccc2ccc(Nc3ccccn3)nc12	active: 1.12 µM
CS(=O)(=O)N1CCN(c2ccc(NC(=S)NC(=O)c3cccs3)cc2)CC1	inactive
Cc1ccc2c(c1)cc(CN(Cc1ccc3c(c1)OCO3)C(=O)c1cnccn1)c1nnnn12	inconclusive: 31.6 µM [inhibitor, single point]
CC(C)(O)CN(C(=O)c1ccc([N+](=O)[O-])cc1)C1CCCC1	inactive
O=C1CCCC2=C1C(c1ccco1)Nc1ccc(C(=O)c3ccccc3)cc1N2 (stereo not drawn)	inconclusive: 2.51 µM [inhibitor, full curve, poor fit]
Cc1ccc2c(c1)c1c3n2CCNC3CCC1 (stereo not drawn)	inconclusive: 0.794 µM [inhibitor, full curve]
CN(CC(=O)Nc1ccccc1Cl)C(=O)CCSc1ccc(F)cc1	inconclusive: 20 µM [inhibitor, single point]
O=C(NOC(=O)c1c(F)cccc1Cl)c1ccc(Cl)c(Cl)c1	inactive
O=C(NCC1CC1)c1ccc2c3n(nc2c1)-c1ccccc1CO3	inconclusive: 31.6 µM [inhibitor, single point]
CC(=O)Nc1cccc(N)c1	inactive
COC(=O)C1=C(C(=O)OC)C2(OC1c1cccc(F)c1)C(=O)c1ccccc1C2=O (stereo not drawn)	inactive
O=c1[nH]c(Cc2ccc(F)cc2)nc2scc(-c3ccc(F)cc3)c12	inactive

Structure (SMILES)	Potency
CCCc1cc(=O)oc2c(C)c(OCC(=O)Nc3cccnc3)ccc12	inconclusive: 11.2 µM [inhibitor, partial curve]
Cc1cccc(NC(=O)CN(C)C(=O)c2ccc(N3CCCCCC3)c([N+](=O)[O-])c2)c1C	inconclusive: 12.6 µM [inhibitor, single point]
CC1CCN(C(=O)COc2cccc3c2CCN(Cc2ccccc2)C3=O)CC1	inconclusive: 20 µM [inhibitor, single point]
Cc1nn(C(C)C(=O)NCCCc2ccccc2)c(=O)c2cc3occc3n12 (stereo not drawn)	inconclusive: 10 µM [inhibitor, partial curve]
Cc1cc(NC(=O)CS(=O)(=O)c2cn(Cc3ccccc3Cl)c3ccccc23)no1	inconclusive: 22.4 µM [inhibitor, single point] and inconclusive: 11.2 µM [inhibitor, partial curve]
Cc1ccc(C(=O)NCCc2ccc(F)cc2)s1	inactive
COc1cc(-c2nnc(SCC(=O)/C(C#N)=C(\C)N)o2)cc(OC)c1OC	inconclusive: 1 µM [inhibitor, partial curve]
N#CC1C(=O)NC(c2ccccc2)=CC1c1ccccc1 (stereo not drawn)	inactive
FC(F)Sc1ccc(-n2cc(-c3ccccc3)[n+]3c2CCC3)cc1	inconclusive: 10 µM [inhibitor, partial curve, poor fit]
CCN(c1ccccc1)S(=O)(=O)c1cc(NC(=O)COC(=O)C2CC2)ccc1Cl	inactive
CCN(CC)C(=O)CSc1nc2ccccc2c(=O)n1CC	inactive
Cn1c(=O)n(C)c2cc(N3CCCCC3)c(NC(=O)c3ccccc3)cc21	inconclusive: 1.41 µM [inhibitor, partial curve]
S=C(c1ccc(Cl)cc1)N1CCN(Cc2ccccc2)CC1	inactive
S=C(NCc1ccccc1)Nc1cccc2cnccc12	active: 2 µM
Cc1cc(C)cc(-n2nnc(C(=O)NCc3ccc(Cl)cc3)c2N)c1	inconclusive: 14.1 µM [inhibitor, single point]
CCN1C(=O)CC2CCCC1C2 (stereo not drawn)	inactive
O=C(NC1CCCN(Cc2ccc(Cl)cc2)C1)c1ccnc(Cl)c1 (stereo not drawn)	inconclusive: 12.6 µM [inhibitor, single point]
Cc1cccc(NC(=O)CSc2ccc(-c3ccco3)nn2)c1	inconclusive: 25.1 µM [inhibitor, single point]
CC1(C)CC(=O)C=C(NNC(=O)c2ccc(N)cc2)C1	inactive
COc1ccc(S(=O)(=O)N2CCN(C(=O)N3CCOCC3)C2C)cc1 (stereo not drawn)	inactive
CC(C)c1ccc(NC(=O)CCc2ccccc2)cc1	inconclusive: 31.6 µM [inhibitor, single point]
COc1cccc(CN2CCN(C(=O)c3ccc(-c4ccccc4)cc3)CC2)c1	inconclusive: 31.6 µM [inhibitor, single point]
CCOC(=O)c1c(/N=C/c2ccc(C)cc2O)sc2c1CCN(C)C2	inconclusive: 3.16 µM [inhibitor, full curve, poor fit]
